# Measured values reported in the supplement of paper PMC3334620.
# The full ranking holds about 33,000 sequences; the median of “E-score (-0.5 to 0.5)” is about -0.017, and the highest 2% start at about 0.3. The list shows a part of the results.
# Molecular target: T1, Sut1 (UniProt P53032)
# T1 sequence: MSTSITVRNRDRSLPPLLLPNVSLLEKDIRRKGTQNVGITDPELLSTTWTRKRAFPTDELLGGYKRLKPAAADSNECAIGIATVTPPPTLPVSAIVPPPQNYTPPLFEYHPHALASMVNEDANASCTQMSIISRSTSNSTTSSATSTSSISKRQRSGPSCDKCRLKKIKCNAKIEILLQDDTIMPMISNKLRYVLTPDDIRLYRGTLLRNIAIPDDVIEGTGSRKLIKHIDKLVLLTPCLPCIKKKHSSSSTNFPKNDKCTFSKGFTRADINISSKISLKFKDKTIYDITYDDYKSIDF
# Test: PBM E-score (8-mer binding enrichment) (E-score (-0.5 to 0.5)); higher = stronger / more preferred TF binding; most listed sequences are background and not binding sites
# Details: protein concentration: 200 nM; construct: GST-full length
# Outline: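 Using PURExpress in vitro transcription/translation, GST-tagged yeast transcription factors were made in full-length or DNA-binding-domain form. These were applied at about 100-200 nM to double-stranded universal all-10-mer Agilent arrays, and bound protein was detected with fluorescent anti-GST. Scans were normalised with masliner before the Universal PBM Analysis Suite assigned E-scores to ungapped eight-base words pooled with their reverse complements.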
row,Sequence,PBM E-score
1,ACCACACA,0.109
2,GGAGGGCC,-0.145
3,CTGACCTA,-0.0719
4,ATAACCTG,0.0337
5,ATGATTGA,-0.0204
6,ACAGCTGC,-0.0869
7,CATTGTAA,0.155
8,ACCGCTGC,-0.326
9,AACCGCAG,-0.134
10,ACGACTCC,0.114
11,CATCATGA,0.00478
12,AGCTGAAT,-0.0191
13,CATCAGTA,0.0546
14,CCTAACGC,-0.118
15,CACTGTTA,-0.164
16,AACCGAGG,-0.154
17,CGTTCCTC,-0.0465
18,GAGTTGTA,0.317
19,CCCCGCCG,-0.0513
20,CGACTGAG,-0.122
21,AGTGGAAT,0.115
22,CATTAACA,0.104
23,ATAACTTA,0.212
24,ATTAAACA,0.219
25,AATATCTA,0.152

row,Sequence,PBM E-score
1,CAGCTCCC,-0.181
2,GGTGACGA,-0.0887
3,GAACCTCC,-0.0801
4,CCCTAGGG,-0.186
5,ATGACATC,-0.0331
6,CACCTCAA,-0.0696
7,AAAGACCA,-0.0834
8,CTTGCCAA,-0.0266
9,TTCAGGAA,-0.175
10,ACTGAATG,0.0699
11,CGCCTACG,-0.208
12,GGAACCTA,-0.00606
13,ATGAACGA,0.0148
14,ATTAGGCG,-0.0174
15,AATAATCT,0.267
16,TGACCAAA,0.0659
17,GTTAGATA,0.133
18,CCGTAAGG,-0.196
19,CACATGCC,-0.099
20,CTTGGGGA,-0.144
21,ACTCGCAT,0.0869
22,AGAGGTGG,-0.106
23,AGTAAAGG,0.0979
24,GAGCAGAC,-0.275
25,CACGCGAG,-0.136

row,Sequence,PBM E-score
1,TGACAACA,0.0885
2,ACTAGGCC,-0.243
3,GGCTTTTA,0.0718
4,ATCGTAAC,0.17
5,ACGGTGGG,-0.249
6,CGGTACCG,0.191
7,AAATAAGC,0.0396
8,ACTTGTAA,-0.00675
9,CGCGAGGA,-0.153
10,AATATGTC,0.163
11,GCTGGTCC,-0.143
12,TCCAAGCA,0.0134
13,CTGTCTAA,0.103
14,TCTAGGCA,-0.0476
15,CACGGTCG,-0.252
16,GATTCCGC,0.0522
17,CGAAAAGC,-0.0121
18,CAGAGGAA,-0.145
19,CCCGTGTC,-0.113
20,CCATTCGC,-0.258
21,TGTCGTAA,-0.0629
22,GCCAACTA,-0.145
23,ATTTAGTC,0.131
24,CAAGGCCA,-0.227
25,CGTGAGGC,0.006

row,Sequence,PBM E-score
1,CACCTCAG,-0.275
2,AGGGATCG,-0.175
3,CAGATTGC,0.0252
4,ACCGCCCT,-0.0957
5,ACGACTAT,0.0374
6,CTCATCCC,-0.185
7,GGCGGGAA,-0.211
8,CATCGGGC,-0.169
9,AAAGTAAG,0.0523
10,TGGATACA,-0.0953
11,CTAAACAC,0.153
12,CCCGTTGA,-0.0989
13,GGCGGACC,0.128
14,GCCAGCAA,-0.13
15,ACGACTAA,-0.0815
16,ACACCCCC,-0.341
17,CGCCGACG,-0.043
18,CAGCTTCC,-0.253
19,GGCGCCAC,-0.251
20,GTGGGAAC,-0.297
21,CATCGATA,0.0644
22,CAACTGCC,-0.00509
23,GGCCTAAC,-0.109
24,GCTAGGGA,-0.308
25,TCAGTGAA,-0.0733

row,Sequence,PBM E-score
1,ACCTGGCG,-0.261
2,ATCCACCC,-0.254
3,CCATGATC,-0.201
4,CCCTAAGA,-0.229
5,AACCTATT,0.00732
6,AGGGAACG,-0.168
7,ACTGATTG,-0.079
8,CTTTTTCA,0.108
9,AGATATAA,0.186
10,ATCGTTCA,0.05
11,CCAAGACC,-0.261
12,CTAAAGAC,-0.0542
13,AGCTATAA,0.0595
14,CGGGGAAG,-0.0346
15,ACGTGAAG,-0.186
16,ATGAGCAC,-0.0678
17,CAGCGAGA,-0.175
18,CCACGTAC,-0.217
19,AAAAATCC,0.171
20,GATCCAGC,-0.22
21,AAAGAAAC,0.149
22,ATTCTGGC,-0.0493
23,CCACGGCC,-0.289
24,AACCAAAG,0.221
25,CTCAAATC,-0.0759

row,Sequence,PBM E-score
1,GCGAACAA,0.138
2,ACTGGCCC,-0.186
3,AATGTGGG,0.0376
4,CCAGGGGG,-0.424
5,CCGGGGTA,0.296
6,AACAGGGC,-0.0802
7,AAGAGACA,0.205
8,ACCGCCCA,-0.115
9,GCGTCTCA,-0.223
10,TTACCGAA,0.263
11,ACCTACTA,0.0679
12,CTATCACA,0.0316
13,GCTTACCA,-0.0165
14,ACTGTGAG,-0.0765
15,ATAGGATC,-0.0239
16,ATTATGCG,0.244
17,TGATATCA,0.129
18,AGCATTCC,-0.0595
19,CAAACCTA,0.135
20,CAACATAG,-0.0276
21,CTTTTTTA,0.258
22,GCGATGTA,0.0361
23,AATCAGTA,-0.0139
24,AATGCTTC,0.153
25,AGTCTGTG,-0.24

row,Sequence,PBM E-score
1,GGACGTGA,-0.306
2,ACCTCTGC,-0.199
3,AGTACCAG,-0.175
4,GAGTAAAC,0.161
5,AGCTCGGG,0.111
6,GTTAGAAC,0.112
7,ATTACGTA,0.136
8,TCAACCAA,-0.00475
9,AATGAGAC,-0.0272
10,GTGGTTCA,0.0643
11,TGATGTAA,0.208
12,ACCTTGAT,0.0485
13,CTTTGGCC,0.144
14,CGTTTGGA,-0.0577
15,CACTACAC,-0.134
16,TAACCGGA,0.332
17,AAGCTGCG,-0.291
18,CGGGCATA,-0.16
19,ACTGAAAG,0.143
20,GGTGTCCA,-0.00701
21,CCAGCGTA,-0.042
22,CCCTTGGA,-0.12
